Measurements as given in PubChem BioAssay AID624170 (National Center for Advancing Translational Sciences (NCATS), 2012).
Hit rate of the full screen: of about 410,000 compounds, about 850 (0.21%) were called active. Inconclusive means that the source gave no clear call. Such entries were picked first, then a sample of the others. Calls come from the whole dose curve; as a rule, active = well fitted inhibition curve with a large enough effect; inconclusive = small, poorly fitted or top-dose-only effect, or another doubt; inactive = no such curve, though single readings can be large or run the other way. A potency beside an inconclusive call is a rough fit, not a confirmed value.

Molecular target: Glutaminase kidney isoform, mitochondrial (Homo sapiens) (UniProt O94925)
Chain of UniProt O94925 (O94925 whole entry, looked up, canonical isoform): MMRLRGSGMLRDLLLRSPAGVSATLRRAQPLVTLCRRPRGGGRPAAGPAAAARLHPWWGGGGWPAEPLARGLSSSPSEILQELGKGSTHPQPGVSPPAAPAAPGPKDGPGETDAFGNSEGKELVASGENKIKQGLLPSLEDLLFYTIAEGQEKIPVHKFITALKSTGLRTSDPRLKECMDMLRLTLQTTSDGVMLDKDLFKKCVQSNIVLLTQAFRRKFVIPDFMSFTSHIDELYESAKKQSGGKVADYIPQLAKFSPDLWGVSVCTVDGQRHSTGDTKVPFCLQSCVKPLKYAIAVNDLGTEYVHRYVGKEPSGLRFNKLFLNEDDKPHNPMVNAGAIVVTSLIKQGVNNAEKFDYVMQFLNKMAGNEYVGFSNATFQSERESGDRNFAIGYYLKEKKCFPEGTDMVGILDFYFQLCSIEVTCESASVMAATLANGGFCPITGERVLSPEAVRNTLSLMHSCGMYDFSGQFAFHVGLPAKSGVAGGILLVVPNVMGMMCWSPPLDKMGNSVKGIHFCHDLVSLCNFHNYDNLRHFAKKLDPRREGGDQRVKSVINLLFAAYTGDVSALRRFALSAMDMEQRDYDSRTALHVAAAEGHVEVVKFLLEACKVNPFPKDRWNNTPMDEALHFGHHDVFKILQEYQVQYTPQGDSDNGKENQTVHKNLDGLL
Assay: qHTS for Inhibitors of Glutaminase (GLS)
Conditions: GLS enzymatic activity, qHTS titration; series mostly up to 45.5 µM
How it was run: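 Read-out is an Amplex red fluorescence increase coupled through glutamate oxidase and HRP, measured before and after 30 min room-temperature incubation. hKGA is in 45 mM KH2PO4 (pH 8.2) with 0.02% Tween-20; glutamine added as 1mM solution.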
Potency is the fitted concentration of half-maximal effect; tags give direction and shape of the fitted curve.

Potency, active:
O=C(CNS(=O)(=O)c1ccc([N+](=O)[O-])cc1)N/N=C/c1ccc(O)cc1O 12.6 µM, CC(=O)c1cccc(OCC(=O)N(C)CC(=O)NCc2ccco2)c1 12.6 µM, O=c1c2cc(F)ccc2sn1-c1ccccc1 7.08 µM, O=C1/C(=C/c2ccc(O)c(O)c2)Oc2cc(O)ccc21 8.91 µM, C=CCOC(=O)C1=C(C)N=c2s/c(=C3\C(=O)N(CC(=O)O)c4ccccc43)c(=O)n2C1c1ccc(OC)cc1 (stereo not given) 22.4 µM

Potency, inconclusive:
Cc1ccc(CN(C(=O)c2ccc([N+](=O)[O-])cc2)C2CCS(=O)(=O)C2)o1 (stereo not given) 35.5 µM [inhibitor, single point], COc1cc(/C=C/C(=O)OCC(=O)c2c(N)n(C)c(=O)n(C)c2=O)ccc1O 17.8 µM [inhibitor, single point], CCOC(=O)c1c(NC(=O)c2cc3nc(-c4ccc(OC)cc4)cc(C(F)(F)F)n3n2)sc2c1CCC(C)C2 (stereo not given) 11.2 µM [inhibitor, partial curve], CCn1c2ccccc2c2cc(/C=N/n3cnnc3)ccc21 3.55 µM [inhibitor, single point], Cc1ccc(Oc2ccccc2/C=N/O)cc1 35.5 µM [inhibitor, single point], CCC(C)(C)n1nnnc1C(c1cc2cc(C)ccc2[nH]c1=O)N1CCCc2ccccc21 (stereo not given) 22.4 µM [inhibitor, single point], O=C(CSC1=Nc2ccccc2C2=NC(c3ccccc3)C(=O)N12)NC1CCCCC1 (stereo not given) 35.5 µM [inhibitor, single point], O=C(C[n+]1ccc(C(=O)c2ccccc2)cc1)Nc1ccccc1OC(F)F 35.5 µM [inhibitor, single point], CCNC(=O)C(Sc1ccccc1)c1ccccc1 (stereo not given) 35.5 µM [inhibitor, partial curve, poor fit], Cc1cccc(-n2c(-c3csc(C)c3C)n[nH]c2=S)c1 3.98 µM [inhibitor, partial curve, poor fit], CC(C)CC1N=C2c3ccccc3N=C(SCC(=O)NCCc3ccc(Cl)cc3)N2C1=O (stereo not given) 12.6 µM [inhibitor, partial curve, poor fit], COc1ccccc1NC(=O)c1ccc(-n2ccnc2)c([N+](=O)[O-])c1 11.2 µM [inhibitor, partial curve], Cc1c(C(=O)O)cnc2c([N+](=O)[O-])cnn12 25.1 µM [inhibitor, single point], OCCNc1nc(C2CC2)nc2c1nnn2Cc1ccccc1Cl 35.5 µM [inhibitor, single point], CC1(C)CC2(CCO1)OC(=O)CC2C(=O)Nc1cccc2ccccc12 (stereo not given) 4.47 µM [inhibitor, single point], CC(CNC(=O)c1ccc(Br)o1)NC(=O)c1ccc(Br)o1 (stereo not given) 35.5 µM [inhibitor, single point], O=C(Nc1ccc(Nc2ccncc2)cc1)c1ccc(Nc2ccnc3ccc([N+](=O)[O-])cc23)cc1 0.562 µM [inhibitor, full curve, poor fit], O=C(NCc1cccnc1)c1ccccc1-c1nc(-c2ccccc2)no1 35.5 µM [inhibitor, partial curve, poor fit], Cc1c(CC(=O)O)c(=O)oc2cc3occ(-c4ccc(F)cc4)c3cc12 25.1 µM [inhibitor, single point], Cc1ccc(-c2nc3ccccn3c2Nc2ccccc2)o1 12.6 µM [inhibitor, partial curve, poor fit], O=c1oc2ccc(Cl)cc2nc1/C=C(\O)c1cccs1 12.6 µM [inhibitor, partial curve], CCOC(=O)C1(Cc2cccc(OC)c2)CCN(Cc2cccc(OC)c2O)CC1 5.01 µM [inhibitor, partial curve, poor fit], COc1cc(NC(C)CCCNC(C)C)c2ncccc2c1OC (stereo not given) 10 µM [inhibitor, partial curve], C#CCOc1ccc(/C=C2/C(=O)NN(c3ccccc3)C2=O)cc1OC 8.91 µM [inhibitor, partial curve], COc1ccc(CCNC(=O)c2ccc3c(c2)NC(=O)C(N2CCOCC2)S3)cc1OC (stereo not given) 3.55 µM [inhibitor, partial curve, poor fit], CCC(=O)Nc1ccc2nc(SCC(=O)N3CCOCC3)sc2c1 35.5 µM [inhibitor, single point], CC(C)(C)NC(=O)/C=C/c1cccc(C(F)(F)F)c1 22.4 µM [inhibitor, single point], FC(F)(F)C1=Nc2cccc3cccc(c23)N1 15.8 µM [inhibitor, single point], Nc1cc([N+](=O)[O-])ccc1Nc1ccccc1 7.08 µM [inhibitor, partial curve, poor fit], C/C(CCC1CC(C)OC1=O)=N/Nc1nc(-c2ccccc2)cs1 (stereo not given) 35.5 µM [inhibitor, single point], CCOC(=O)C1CCCN(C(=O)c2cc3nc(-c4cccc(OC)c4)cc(C(F)(F)F)n3n2)C1 (stereo not given) 22.4 µM [inhibitor, single point], O=C(N/N=C/c1ccc(-c2ccc(Cl)c(C(=O)O)c2)o1)c1cc2c(ccc3ccccc32)o1 25.1 µM [inhibitor, single point], COc1cc(C(c2sc3nc(C)nn3c2O)N2CCC3(CC2)OCCO3)cc(OC)c1OC (stereo not given) 35.5 µM [inhibitor, single point], CCCCCCCCCCCCCCCCn1cc[n+](C)c1 35.5 µM [inhibitor, partial curve, poor fit], Cn1c(=O)c2c(O)c(C=Nc3ccc(F)cc3)c(=O)n(C)c2n(C)c1=O 4.47 µM [inhibitor, single point], Cc1ccc(CN2C(=O)N/C(=C\c3ccc(-c4ccc(C(=O)O)cc4C)o3)C2=O)cc1 35.5 µM [inhibitor, single point], O=S1(=O)CSCS(=O)(=O)C1 35.5 µM [inhibitor, single point], COCCNC(=S)Nc1cc(OC)c(OC)cc1C#N 15.8 µM [inhibitor, partial curve, poor fit], CN(Cc1ccccc1)C(=O)C1CCN(S(C)(=O)=O)CC1 35.5 µM [inhibitor, single point], S=c1nccc(-c2ccc(Cl)cc2)[nH]1 15.8 µM [inhibitor, single point], C(=C\c1ccccc1)/CN1CCN(C(c2cc3ccccc3o2)c2nnnn2C2CCCC2)CC1 (stereo not given) 4.47 µM [inhibitor, single point]

Potency, inactive:
Cc1cc(C)n(CCC(=O)N2CCc3ccccc32)n1, O=S(=O)(NC1CCCCC1)c1cccc(-c2nnc(-c3ccccc3)o2)c1, CCc1cccc(NC(=O)c2cc3c(=O)n(Cc4ccc(OC)cc4)ccc3nc2C)c1, COc1ccc(C(=O)CSc2nnc(-c3cnccn3)n2Cc2ccco2)cc1, CC(C)(C)C(=O)Nc1nc(=S)ss1, Cc1ccc(S(=O)(=O)N(C)C)cc1NC(=O)C1CCCCN1S(=O)(=O)c1ccccc1 (stereo not given), Cc1cc(-c2ccccc2)nc2cc(C(=O)NCc3ccco3)nn12, O=C(CN1CCCCCC1)N/N=C/c1cccc(Cl)c1, Cc1c(Cl)cccc1NS(=O)(=O)c1ccc(NS(=O)(=O)c2ccc3c(c2)OCCO3)cc1, Cc1ccc(-c2nn(C)c(=O)c3ccccc23)cc1S(=O)(=O)NCCCN(C)C, CNC(=O)CSc1nc2cc(S(=O)(=O)Nc3ccc(OC)cc3)ccc2o1, Cc1cccc(NC(=O)c2ccc(Cl)c(S(=O)(=O)N3CCc4ccccc43)c2)n1, C=CCSC1=N/C(=C\C=C\c2ccco2)C(=O)S1, COc1ccc(NC(C)C(=O)N/N=C/c2ccccc2OCc2ccc(Br)cc2)cc1 (stereo not given), Fc1ccccc1/C=N/n1cc(-c2ccccc2)[nH]c1=S, CCC(C)(C)NC(=O)CN(C(=O)c1ccc(N2CCCC2)nc1)c1ccc(F)cc1, COCCOCC(O)CN1CCN(c2ccccc2)CC1 (stereo not given), Cc1cc(N2C(=O)C(O)=C(C(=O)c3ccc(C)o3)C2c2ccc([N+](=O)[O-])cc2)no1 (stereo not given), CC(=Nc1ccccc1)C1=C(O)C(Cc2cccc(F)c2)NC1=O (stereo not given), CCOC(=O)/C(=N\Nc1ncnc2ccccc12)c1ccc(OC)cc1, COC(=O)[C@@]12CCCCN1[C@H](c1ccc(-c3ccc(F)cc3)c(OC)c1)[C@@H]1C(=O)N(C)C(=O)[C@@H]12, Cc1ccc(-c2nnc(Nc3ccc(O)cc3)c3ccccc23)cc1S(=O)(=O)N1CCCCC1, CC1(C)CC(NC(=O)C2CCN(S(=O)(=O)c3ccc(Cl)c(C(F)(F)F)c3)CC2)CC(C)(C)N1, COc1ccc(CNC(=O)CCS(=O)(=O)c2cccc3nonc23)cc1
